This is one part of the list. Single values are uncertain, as repeats are few or missing.
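Note: cells treated in 1,536-well plates, then fixed and DAPI-stained, with nuclei counted from automated high-throughput microscope images.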

For the test, the system named is G361. As to the kind of experiment: cell count relative to DMSO control; melanoma cells; higher = more viable cells. The following applies: library dose: standard library concentration; 72 h.
The compound `CC[C@]1(O)C[C@H]2CN(CCc3c([nH]c4ccccc34)[C@@](C(=O)OC)(c3cc4c(cc3OC)N(C=O)[C@H]3[C@@](O)(C(=O)OC)[C@H](OC(C)=O)[C@]5(CC)C=CCN6CC[C@]43[C@@H]65)C2)C1` [vincristine] + COc1ccc2c(c1)CCC1C2CCC2(C)C(NCCCCCCN3C(=O)C=CC3=O)CCC12 [U73122] (first compound 0.0005 µM, partner dose 2 µM) showed a cell count of 100%.

Consider `Cc1cc(Nc2cc(N3CCN(C)CC3)nc(Sc3ccc(NC(=O)C4CC4)cc3)n2)n[nH]1` [Tozasertib] + N#Cc1c(O)c2c(-c3ccc(-c4ccccc4O)cc3)csc2[nH]c1=O [A769662] (first compound 0.03 µM, partner dose 10 µM), for which the cell count was found to be 98.6%.

The compound `Cc1cc(Nc2cc(N3CCN(C)CC3)nc(Sc3ccc(NC(=O)C4CC4)cc3)n2)n[nH]1` [Tozasertib] + Cn1cncc1[C@@](N)(c1ccc(Cl)cc1)c1ccc2c(c1)c(-c1cccc(Cl)c1)cc(=O)n2C [tipifarnib] (first compound 0.03 µM, partner dose 0.05 µM) registered a cell count of 82.1%.

`Cc1cc(Nc2cc(N3CCN(C)CC3)nc(Sc3ccc(NC(=O)C4CC4)cc3)n2)n[nH]1` [Tozasertib] + C#Cc1cccc(Nc2ncnc3cc(OCCOC)c(OCCOC)cc23)c1 [erlotinib] (first compound 0.03 µM, partner dose 4 µM): the cell count worked out at 64.5%.

As for `Cc1cc(Nc2cc(N3CCN(C)CC3)nc(Sc3ccc(NC(=O)C4CC4)cc3)n2)n[nH]1` [Tozasertib] + COc1cc(N2CCC(N3CCN(C)CC3)CC2)ccc1Nc1ncc(Cl)c(Nc2ccccc2S(=O)(=O)C(C)C)n1 [NVP-TAE684] (first compound 0.03 µM, partner dose 0.4 µM), the cell count is 70.7%.

Turning to `CC[C@]1(O)C[C@H]2CN(CCc3c([nH]c4ccccc34)[C@@](C(=O)OC)(c3cc4c(cc3OC)N(C=O)[C@H]3[C@@](O)(C(=O)OC)[C@H](OC(C)=O)[C@]5(CC)C=CCN6CC[C@]43[C@@H]65)C2)C1` [vincristine] + CCc1ccc(CCOc2ccc(CC3SC(=O)NC3=O)cc2)nc1 [pioglitazone] (first compound 0.0005 µM, partner dose 10 µM), the cell count was determined as 22.5%.

Take `Cc1cc(Nc2cc(N3CCN(C)CC3)nc(Sc3ccc(NC(=O)C4CC4)cc3)n2)n[nH]1` [Tozasertib] + COc1cc(Nc2ncc(F)c(Nc3ccc4c(n3)NC(=O)C(C)(C)O4)n2)cc(OC)c1OC [Tamatinib] (first compound 0.03 µM, partner dose 2 µM): the cell count turned out to be 65.6%.

With `Cc1cc(Nc2cc(N3CCN(C)CC3)nc(Sc3ccc(NC(=O)C4CC4)cc3)n2)n[nH]1` [Tozasertib] + C[C@@H](Oc1cc(-c2cnn(C3CCNCC3)c2)cnc1N)c1c(Cl)ccc(F)c1Cl [Crizotinib] (first compound 0.03 µM, partner dose 1 µM), the cell count was found to be 77%.

Compound `CC[C@]1(O)C[C@H]2CN(CCc3c([nH]c4ccccc34)[C@@](C(=O)OC)(c3cc4c(cc3OC)N(C=O)[C@H]3[C@@](O)(C(=O)OC)[C@H](OC(C)=O)[C@]5(CC)C=CCN6CC[C@]43[C@@H]65)C2)C1` [vincristine] + CN(NC(=O)CC(=O)NN(C)C(=S)c1ccccc1)C(=S)c1ccccc1 [STA4783] (first compound 0.0005 µM, partner dose 0.03 µM) gave a cell count of 54.4%.

The compound `CC[C@]1(O)C[C@H]2CN(CCc3c([nH]c4ccccc34)[C@@](C(=O)OC)(c3cc4c(cc3OC)N(C=O)[C@H]3[C@@](O)(C(=O)OC)[C@H](OC(C)=O)[C@]5(CC)C=CCN6CC[C@]43[C@@H]65)C2)C1` [vincristine] + NC1(c2ccc(-c3nc4ccn5c(=O)[nH]nc5c4cc3-c3ccccc3)cc2)CCC1 [MK2206] (first compound 0.0005 µM, partner dose 2 µM) returned a cell count of 98%.

In turn, `CC[C@]1(O)C[C@H]2CN(CCc3c([nH]c4ccccc34)[C@@](C(=O)OC)(c3cc4c(cc3OC)N(C=O)[C@H]3[C@@](O)(C(=O)OC)[C@H](OC(C)=O)[C@]5(CC)C=CCN6CC[C@]43[C@@H]65)C2)C1` [vincristine] + O=C(O)c1ccc(-c2c[nH]c3ncc(-c4ccccc4)cc23)cc1C1CCCC1 [GSK650394] (first compound 0.0005 µM, partner dose 0.8 µM) returned a cell count of 65.6%.

As to `CC[C@]1(O)C[C@H]2CN(CCc3c([nH]c4ccccc34)[C@@](C(=O)OC)(c3cc4c(cc3OC)N(C=O)[C@H]3[C@@](O)(C(=O)OC)[C@H](OC(C)=O)[C@]5(CC)C=CCN6CC[C@]43[C@@H]65)C2)C1` [vincristine] + COc1ccc(C2=N[C@@H](c3ccc(Cl)cc3)[C@@H](c3ccc(Cl)cc3)N2C(=O)N2CCNC(=O)C2)c(OC(C)C)c1 [Nutlin-3] (first compound 0.0005 µM, partner dose 0.5 µM), the cell count came to 77.7%.

The compound `N#CC[C@H](C1CCCC1)n1cc(-c2ncnc3[nH]ccc23)cn1` [ruxolitinib] + CC(=O)c1c(C)c2cnc(Nc3ccc(N4CCNCC4)cn3)nc2n(C2CCCC2)c1=O [palbociclib] (first compound 5 µM, partner dose 0.2 µM) showed a cell count of 48.8%.
